Laboratory results as given in publication PMC5303829, “A CAF40-binding motif facilitates recruitment of the CCR4-NOT complex to mRNAs targeted by Drosophila Roquin” (Nature Communications, 2017).
Results are given in words; binding and its absence hold for the method and conditions named. In cells and extracts the contact can be indirect. Some results given as binding are weak or reduced against the parent protein; the word gives no strength. Sequences can lack the tags named with a protein.

Amino acid sequences for entries named in this document (tags omitted).
UniProt Q7JVP2: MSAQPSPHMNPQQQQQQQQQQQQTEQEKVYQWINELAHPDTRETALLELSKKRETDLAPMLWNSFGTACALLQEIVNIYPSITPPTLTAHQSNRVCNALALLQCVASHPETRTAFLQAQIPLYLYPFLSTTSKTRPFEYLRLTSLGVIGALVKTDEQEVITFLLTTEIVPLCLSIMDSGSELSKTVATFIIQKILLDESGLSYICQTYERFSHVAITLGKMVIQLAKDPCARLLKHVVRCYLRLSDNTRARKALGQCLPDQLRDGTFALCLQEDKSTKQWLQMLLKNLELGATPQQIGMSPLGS

How the values were obtained:
[1] = molecular target: T1, GFP-tagged Dm Roquin (full-length, wild-type) (Drosophila melanogaster) (UniProt Q9VV48); assay: co-IP; GFP-tagged Dm Roquin and HA-tagged CAF40 co-expressed in Dm S2 cells in the presence of HA-tagged CN9BD; lysates treated with RNase A (Fig. 5)
T1 sequence: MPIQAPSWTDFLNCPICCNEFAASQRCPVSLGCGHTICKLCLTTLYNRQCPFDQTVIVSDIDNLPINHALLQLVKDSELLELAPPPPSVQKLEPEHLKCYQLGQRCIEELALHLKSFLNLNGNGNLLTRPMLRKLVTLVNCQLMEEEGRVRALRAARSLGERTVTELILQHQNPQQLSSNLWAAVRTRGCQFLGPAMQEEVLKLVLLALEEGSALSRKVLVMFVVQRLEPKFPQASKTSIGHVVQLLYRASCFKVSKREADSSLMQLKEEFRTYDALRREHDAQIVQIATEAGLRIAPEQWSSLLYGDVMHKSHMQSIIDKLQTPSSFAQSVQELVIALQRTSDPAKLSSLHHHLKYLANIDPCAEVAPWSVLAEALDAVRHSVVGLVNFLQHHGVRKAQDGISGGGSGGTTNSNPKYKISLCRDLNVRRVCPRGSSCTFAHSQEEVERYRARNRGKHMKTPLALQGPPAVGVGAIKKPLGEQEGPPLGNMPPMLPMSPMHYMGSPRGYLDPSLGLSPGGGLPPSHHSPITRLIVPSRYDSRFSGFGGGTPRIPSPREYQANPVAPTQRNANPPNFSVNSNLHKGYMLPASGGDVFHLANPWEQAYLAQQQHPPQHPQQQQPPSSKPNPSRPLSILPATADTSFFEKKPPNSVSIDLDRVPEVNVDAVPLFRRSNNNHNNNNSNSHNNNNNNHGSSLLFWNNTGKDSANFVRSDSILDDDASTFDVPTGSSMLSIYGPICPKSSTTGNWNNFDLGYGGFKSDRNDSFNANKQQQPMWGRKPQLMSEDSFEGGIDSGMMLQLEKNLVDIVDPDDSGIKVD

[2] = molecular target: T2, GFP-tagged Dm Roquin ΔCBM (Drosophila melanogaster) (UniProt Q9VV48); assay: as above
T2 sequence: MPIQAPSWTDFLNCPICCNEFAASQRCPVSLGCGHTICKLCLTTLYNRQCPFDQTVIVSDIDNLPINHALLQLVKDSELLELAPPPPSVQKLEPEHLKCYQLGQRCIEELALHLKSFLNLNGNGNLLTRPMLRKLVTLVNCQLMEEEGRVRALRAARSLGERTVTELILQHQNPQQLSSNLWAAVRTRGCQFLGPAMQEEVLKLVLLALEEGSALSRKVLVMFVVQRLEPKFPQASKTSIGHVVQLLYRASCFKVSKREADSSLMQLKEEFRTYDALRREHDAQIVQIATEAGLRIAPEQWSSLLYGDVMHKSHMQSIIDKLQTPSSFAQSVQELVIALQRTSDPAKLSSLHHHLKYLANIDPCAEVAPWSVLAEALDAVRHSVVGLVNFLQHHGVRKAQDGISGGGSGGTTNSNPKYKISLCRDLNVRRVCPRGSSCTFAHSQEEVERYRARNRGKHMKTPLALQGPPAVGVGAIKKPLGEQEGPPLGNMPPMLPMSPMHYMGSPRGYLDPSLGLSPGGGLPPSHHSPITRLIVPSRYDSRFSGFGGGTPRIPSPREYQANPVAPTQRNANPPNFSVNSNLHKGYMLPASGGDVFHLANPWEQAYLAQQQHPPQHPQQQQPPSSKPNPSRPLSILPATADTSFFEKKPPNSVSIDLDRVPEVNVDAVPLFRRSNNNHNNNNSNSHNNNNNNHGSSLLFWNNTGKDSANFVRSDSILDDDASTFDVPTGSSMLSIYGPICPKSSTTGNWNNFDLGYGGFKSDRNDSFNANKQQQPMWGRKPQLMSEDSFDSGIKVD

binding [1]: binds
binding [2]: no binding
Substance: HA-tagged Dm CAF40 (full-length, wild-type) (from UniProt Q7JVP2 1-304)
